In patent US20240294594A1 (CYTUNE PHARMA, published 2024):

T1: IL-2/IL-15Rβγ (on cells) (UniProt P14784 27-551; P31785 23-369, limits assumed)
T1 sequence (looked up) 1: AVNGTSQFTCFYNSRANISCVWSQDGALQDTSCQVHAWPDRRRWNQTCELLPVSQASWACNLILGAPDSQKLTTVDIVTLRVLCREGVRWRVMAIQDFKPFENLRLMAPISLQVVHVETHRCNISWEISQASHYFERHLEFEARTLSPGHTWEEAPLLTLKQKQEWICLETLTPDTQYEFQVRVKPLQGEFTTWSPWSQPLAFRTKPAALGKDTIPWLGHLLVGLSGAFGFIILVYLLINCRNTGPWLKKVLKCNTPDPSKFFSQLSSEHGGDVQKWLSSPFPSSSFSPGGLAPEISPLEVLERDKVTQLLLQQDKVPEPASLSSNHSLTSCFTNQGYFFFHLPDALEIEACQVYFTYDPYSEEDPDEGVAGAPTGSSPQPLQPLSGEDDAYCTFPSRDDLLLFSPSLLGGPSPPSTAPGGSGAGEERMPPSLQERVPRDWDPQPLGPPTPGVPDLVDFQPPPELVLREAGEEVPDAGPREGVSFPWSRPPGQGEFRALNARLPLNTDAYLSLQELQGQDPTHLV
T1 sequence (looked up) 2: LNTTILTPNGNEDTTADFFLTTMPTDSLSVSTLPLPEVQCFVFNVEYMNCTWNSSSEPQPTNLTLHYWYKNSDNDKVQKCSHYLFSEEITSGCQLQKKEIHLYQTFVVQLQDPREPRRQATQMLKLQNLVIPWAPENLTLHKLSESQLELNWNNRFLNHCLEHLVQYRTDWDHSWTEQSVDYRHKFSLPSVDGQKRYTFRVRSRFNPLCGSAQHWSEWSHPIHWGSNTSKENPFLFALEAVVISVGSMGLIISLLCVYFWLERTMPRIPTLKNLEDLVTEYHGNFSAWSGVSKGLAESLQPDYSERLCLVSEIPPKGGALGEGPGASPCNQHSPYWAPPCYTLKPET

B1: PEM LE-RLI-ND x1 (other)
heavy 1: QVQLVQSGVEVKKPGASVKVSCKASGYTFTNYYMYWVRQAPGQGLEWMGGINPSNGGTNFNEKFKNRVTLTTDSSTTTAYMELKSLQFDDTAVYYCARRDYRFDMGFDYWGQGTTVTVSSASTKGPSVFPLAPCSRSTSESTAALGCLVKDYFPEPVTVSWNSGALTSGVHTFPAVLQSSGLYSLSSVVTVPSSSLGTKTYTCNVDHKPSNTKVDKRV[not shown - human IgG4 Fc with S228P L235E T366W (EU numbers)]ITCPPPMSVEHADIWVKSYSLYSRERYICNSGFKRKAGTSSLTECVLNKATNVAHWTTPSLKCIRDPALVHQRPAPPSGGSGGGGSGGGSGGGGSGGNWVNVISDLKKIEDLIQSMHIDATLYTESDVHPSCKVTAMKCFLLELQVISLESGDASIHDTVEDLIILANNSLSSNAQVTESGCKECEELEEKNIKEFLQSFVHIVQMFINTS
heavy 2: QVQLVQSGVEVKKPGASVKVSCKASGYTFTNYYMYWVRQAPGQGLEWMGGINPSNGGTNFNEKFKNRVTLTTDSSTTTAYMELKSLQFDDTAVYYCARRDYRFDMGFDYWGQGTTVTVSSASTKGPSVFPLAPCSRSTSESTAALGCLVKDYFPEPVTVSWNSGALTSGVHTFPAVLQSSGLYSLSSVVTVPSSSLGTKTYTCNVDHKPSNTKVDKRVESKYGPPCPPCPAPEFEGGPSVFLFPPKPKDTLMISRTPEVTCVVVDVSQEDPEVQFNWYVDGVEVHNAKTKPREEQFNSTYRVVSVLTVLHQDWLNGKEYKCKVSNKGLPSSIEKTISKAKGQPREPQVYTLPPSQEEMTKNQVSLSCAVKGFYPSDIAVEWESNGQPENNYKTTPPVLDSDGSFFLVSRLTVDKSRWQEGNVFSCSVMHEALHNHYTQKSLSLSLG
light: EIVLTQSPATLSLSPGERATLSCRASKGVSTSGYSYLHWYQQKPGQAPRLLIYLASYLESGVPARFSGSGSGTDFTLTISSLEPEDFAVYYCQHSRDLPLTFGGGTKVEIKRTVAAPSVFIFPPSDEQLKSGTASVVCLLNNFYPREAKVQWKVDNALQSGNSQESVTEQDSKDSTYSLSSTLTLSKADYEKHKVYACEVTHQGLSSPVTKSFNRGEC
B2: PEM LE-RLI-ND x2 (other)
heavy: QVQLVQSGVEVKKPGASVKVSCKASGYTFTNYYMYWVRQAPGQGLEWMGGINPSNGGTNFNEKFKNRVTLTTDSSTTTAYMELKSLQFDDTAVYYCARRDYRFDMGFDYWGQGTTVTVSSASTKGPSVFPLAPCSRSTSESTAALGCLVKDYFPEPVTVSWNSGALTSGVHTFPAVLQSSGLYSLSSVVTVPSSSLGTKTYTCNVDHKPSNTKVDKRV[not shown - human IgG4 Fc with changes]ITCPPPMSVEHADIWVKSYSLYSRERYICNSGFKRKAGTSSLTECVLNKATNVAHWTTPSLKCIRDPALVHQRPAPPSGGSGGGGSGGGSGGGGSGGNWVNVISDLKKIEDLIQSMHIDATLYTESDVHPSCKVTAMKCFLLELQVISLESGDASIHDTVEDLIILANNSLSSNAQVTESGCKECEELEEKNIKEFLQSFVHIVQMFINTS
light: B1 light
B3: PEM LE-RLI-NQD x2 (other)
heavy: QVQLVQSGVEVKKPGASVKVSCKASGYTFTNYYMYWVRQAPGQGLEWMGGINPSNGGTNFNEKFKNRVTLTTDSSTTTAYMELKSLQFDDTAVYYCARRDYRFDMGFDYWGQGTTVTVSSASTKGPSVFPLAPCSRSTSESTAALGCLVKDYFPEPVTVSWNSGALTSGVHTFPAVLQSSGLYSLSSVVTVPSSSLGTKTYTCNVDHKPSNTKVDKRV[not shown - human IgG4 Fc with changes]ITCPPPMSVEHADIWVKSYSLYSRERYICNSGFKRKAGTSSLTECVLNKATNVAHWTTPSLKCIRDPALVHQRPAPPSGGSGGGGSGGGSGGGGSGGNWVNVISDLKKIEDLIQSMHIDATLYTESNVHPSCKVTAMKCFLLELQVISLESGDASIHDTVQDLIILANNSLSSNAQVTESGCKECEELEEKNIKEFLQSFVHIVQMFINTS
light: B1 light
B4: PD1-IL2v (other)
heavy 1: EVQLLESGGGLVQPGGSLRLSCAASGFSFSSYTMSWVRQAPGKGLEWVATISGGGRDIYYPDSVKGRFTISRDNSKNTLYLQMNSLRAEDTAVYYCVLLTGRVYFALDSWGQGTLVTVSSASTKGPSVFPLAPSSKSTSGGTAALGCLVKDYFPEPVTVSWNSGALTSGVHTFPAVLQSSGLYSLSSVVTVPSSSLGTQTYICNVNHKPSNTKVDKKV[not shown - human IgG1 Fc with changes]GGGGSGGGGSGGGGSAPASSSTKKTQLQLEHLLLDLQMILNGINNYKNPKLTRMLTAKFAMPKKATELKHLQCLEEELKPLEEVLNGAQSKNFHLRPRDLISNINVIVLELKGSETTFMCEYADETATIVEFLNRWITFAQSIISTLT
heavy 2: EVQLLESGGGLVQPGGSLRLSCAASGFSFSSYTMSWVRQAPGKGLEWVATISGGGRDIYYPDSVKGRFTISRDNSKNTLYLQMNSLRAEDTAVYYCVLLTGRVYFALDSWGQGTLVTVSSASTKGPSVFPLAPSSKSTSGGTAALGCLVKDYFPEPVTVSWNSGALTSGVHTFPAVLQSSGLYSLSSVVTVPSSSLGTQTYICNVNHKPSNTKVDKKVEPKSCDKTHTCPPCPAPEAAGGPSVFLFPPKPKDTLMISRTPEVTCVVVDVSHEDPEVKFNWYVDGVEVHNAKTKPREEQYNSTYRVVSVLTVLHQDWLNGKEYKCKVSNKALGAPIEKTISKAKGQPREPQVCTLPPSRDELTKNQVSLSCAVKGFYPSDIAVEWESNGQPENNYKTTPPVLDSDGSFFLVSKLTVDKSRWQQGNVFSCSVMHEALHNHYTQKSLSLSP
light: DIVMTQSPDSLAVSLGERATINCKASESVDTSDNSFIHWYQQKPGQSPKLLIYRSSTLESGVPDRFSGSGSGTDFTLTISSLQAEDVAVYYCQQNYDVPWTFGQGTKVEIKRTVAAPSVFIFPPSDEQLKSGTASVVCLLNNFYPREAKVQWKVDNALQSGNSQESVTEQDSKDSTYSLSSTLTLSKADYEKHKVYACEVTHQGLSSPVTKSFNRGEC

What was measured:
IL-2/IL-15Rβγ (on cells) = target: T1, IL-2/IL-15Rβγ (on cells); test: cell-based or functional assay
[1] = target: PD-1 (on PD-1 Effector Cells of the Promega PD-1/PD-L1 Blockade Bioassay) (UniProt Q15116 25-288, limits assumed); test: cell-based or functional assay
Chain of UniProt Q15116 (Q15116 25-288 limits assumed): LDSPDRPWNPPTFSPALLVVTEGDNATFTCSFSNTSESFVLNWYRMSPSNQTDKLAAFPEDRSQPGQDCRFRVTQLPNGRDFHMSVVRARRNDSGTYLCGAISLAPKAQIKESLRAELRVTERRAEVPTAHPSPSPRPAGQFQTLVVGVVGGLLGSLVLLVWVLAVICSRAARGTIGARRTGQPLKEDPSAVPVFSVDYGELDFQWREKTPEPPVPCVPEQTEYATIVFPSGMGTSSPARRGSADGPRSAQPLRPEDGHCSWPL

Row | Binder | EC50 kit225 cells pM (IL-2/IL-15Rβγ (on cells)) [pM] | Relative potency/kit225 cells (IL-2/IL-15Rβγ (on cells)) [%] | EC50 [pM], Promega blocking assay [1] [pM] | Relative potency vs Keytruda, Promega blocking assay [1] [%]
1 | B1 | 9240 | 0.55 |  | 
2 | B2 | 5270 | 0.97 |  | 
3 | B3 | 117000 | 0.044 |  | 
4 | B4 |  |  | 4570 | 38.6
